Assay results from the CheMixHub ionic liquid set.
This continues a long series; more values of the same kind are listed elsewhere.

Assay: xn = mol fraction of the nth substance listed
Settings: 101 kPa

CCCCCCCCCCCCOCC(O)C[N+](C)(C)C.[Cl-] (stereo not given) + O
electrical conductivity [S/m]
Settings | 318.15 K | 323.15 K
x1 = 9.77e-06 | – | 15.7
x1 = 1.929e-05 | – | 31.1
x1 = 2.918e-05 | – | 46.2
x1 = 3.872e-05 | – | 61
x1 = 4.847e-05 | – | 75.3
x1 = 5.831e-05 | – | 89.2
x1 = 6.791e-05 | – | 104
x1 = 7.769e-05 | – | 119
x1 = 8.751e-05 | – | 132
x1 = 9.708e-05 | – | 146
x1 = 0.0001069 | 150 | 160
x1 = 0.0001166 | 162 | 171
x1 = 0.0001263 | 173 | 182
x1 = 0.0001362 | 183 | 196
x1 = 0.000146 | 193 | –

CCCCCCCCCCCCCCCC[n+]1ccccc1.[Cl-] + NCC(=O)O + O
308.15 K
Settings | electrical conductivity [S/m]
x2 = 0.0002, x1 = 6.725e-05 | 0.00423
x2 = 0.0002, x1 = 7.519e-05 | 0.00448
x2 = 0.0002, x1 = 8.294e-05 | 0.00469
x2 = 0.0002, x1 = 9.033e-05 | 0.00489
x2 = 0.0002, x1 = 9.736e-05 | 0.00508
x2 = 0.0002, x1 = 0.0001042 | 0.00523
x2 = 0.0002, x1 = 0.0001107 | 0.0054
x2 = 0.0002, x1 = 0.000117 | 0.00555
x2 = 0.0003638, x1 = 4.871e-05 | 0.00395
x2 = 0.0003638, x1 = 5.051e-05 | 0.00402
x2 = 0.0003638, x1 = 5.935e-05 | 0.0043
x2 = 0.0003638, x1 = 6.765e-05 | 0.00457
x2 = 0.0003638, x1 = 7.577e-05 | 0.00479
x2 = 0.0003638, x1 = 8.352e-05 | 0.00501
x2 = 0.0003638, x1 = 9.092e-05 | 0.00521
x2 = 0.0003638, x1 = 9.813e-05 | 0.00539
x2 = 0.0003638, x1 = 0.000105 | 0.00555
x2 = 0.0003638, x1 = 0.0001115 | 0.00572
x2 = 0.0003638, x1 = 0.0001178 | 0.00587
x2 = 0.0003639, x1 = 5.4e-07 | 0.000474
x2 = 0.0003639, x1 = 9e-07 | 0.000597
x2 = 0.0003639, x1 = 1.62e-06 | 0.000695
x2 = 0.0003639, x1 = 2.35e-06 | 0.000778
x2 = 0.0003639, x1 = 2.89e-06 | 0.0009
x2 = 0.0003639, x1 = 3.79e-06 | 0.000957
x2 = 0.0003639, x1 = 4.51e-06 | 0.001121
x2 = 0.0003639, x1 = 5.59e-06 | 0.00128
x2 = 0.0003639, x1 = 6.68e-06 | 0.001413
x2 = 0.0003639, x1 = 7.76e-06 | 0.00156
x2 = 0.0003639, x1 = 8.84e-06 | 0.001712
x2 = 0.0003639, x1 = 9.92e-06 | 0.001841
x2 = 0.0003639, x1 = 1.1e-05 | 0.00198
x2 = 0.0003639, x1 = 1.317e-05 | 0.00219
x2 = 0.0003639, x1 = 1.533e-05 | 0.00237
x2 = 0.0003639, x1 = 1.75e-05 | 0.00241
x2 = 0.0003639, x1 = 1.966e-05 | 0.00265
x2 = 0.0003639, x1 = 2.165e-05 | 0.00277
x2 = 0.0003639, x1 = 2.363e-05 | 0.00289
x2 = 0.0003639, x1 = 2.58e-05 | 0.00299
x2 = 0.0003639, x1 = 2.977e-05 | 0.00318
x2 = 0.0003639, x1 = 3.374e-05 | 0.00337
x2 = 0.0003639, x1 = 3.752e-05 | 0.00352
x2 = 0.0003639, x1 = 4.131e-05 | 0.00368
x2 = 0.0003639, x1 = 4.51e-05 | 0.00383
x2 = 0.0009181, x1 = 2.404e-05 | 0.00263
x2 = 0.0009181, x1 = 2.602e-05 | 0.00275
x2 = 0.0009181, x1 = 3.018e-05 | 0.00296
x2 = 0.0009181, x1 = 3.416e-05 | 0.00313
x2 = 0.0009181, x1 = 3.813e-05 | 0.00325
x2 = 0.0009181, x1 = 4.193e-05 | 0.00343
x2 = 0.0009181, x1 = 4.572e-05 | 0.00357
x2 = 0.0009181, x1 = 4.934e-05 | 0.00371
x2 = 0.0009181, x1 = 5.114e-05 | 0.00378
x2 = 0.0009181, x1 = 6.018e-05 | 0.00405
x2 = 0.0009181, x1 = 6.867e-05 | 0.00435
x2 = 0.0009181, x1 = 7.68e-05 | 0.00458
x2 = 0.0009181, x1 = 8.457e-05 | 0.0048
x2 = 0.0009181, x1 = 9.216e-05 | 0.005
x2 = 0.0009181, x1 = 9.939e-05 | 0.00518
x2 = 0.0009181, x1 = 0.0001062 | 0.00535
x2 = 0.0009181, x1 = 0.0001129 | 0.00551
x2 = 0.0009181, x1 = 0.0001194 | 0.00565
x2 = 0.0009182, x1 = 5.4e-07 | 0.000272
x2 = 0.0009182, x1 = 9e-07 | 0.000333
x2 = 0.0009182, x1 = 1.63e-06 | 0.000398
x2 = 0.0009182, x1 = 2.35e-06 | 0.000428
x2 = 0.0009182, x1 = 2.89e-06 | 0.000525
x2 = 0.0009182, x1 = 3.8e-06 | 0.000653
x2 = 0.0009182, x1 = 4.52e-06 | 0.00076
x2 = 0.0009182, x1 = 5.6e-06 | 0.000956
x2 = 0.0009182, x1 = 6.87e-06 | 0.00108
x2 = 0.0009182, x1 = 7.95e-06 | 0.00119
x2 = 0.0009182, x1 = 9.04e-06 | 0.00138
x2 = 0.0009182, x1 = 1.012e-05 | 0.00156
x2 = 0.0009182, x1 = 1.12e-05 | 0.00166
x2 = 0.0009182, x1 = 1.337e-05 | 0.00187
x2 = 0.0009182, x1 = 1.554e-05 | 0.00212
x2 = 0.0009182, x1 = 1.771e-05 | 0.0023
x2 = 0.0009182, x1 = 1.988e-05 | 0.00245
x2 = 0.0009182, x1 = 2.187e-05 | 0.00255
x2 = 0.001802, x1 = 5.4e-07 | 0.000414
x2 = 0.001802, x1 = 9.1e-07 | 0.000474
x2 = 0.001802, x1 = 1.63e-06 | 0.000593
x2 = 0.001802, x1 = 2.36e-06 | 0.000702
x2 = 0.001802, x1 = 2.9e-06 | 0.000764
x2 = 0.001802, x1 = 3.81e-06 | 0.000892
x2 = 0.001802, x1 = 4.53e-06 | 0.000951
x2 = 0.001802, x1 = 5.62e-06 | 0.001112
x2 = 0.001802, x1 = 6.89e-06 | 0.00128
x2 = 0.001802, x1 = 7.97e-06 | 0.00138
x2 = 0.001802, x1 = 9.06e-06 | 0.0015
x2 = 0.001802, x1 = 1.015e-05 | 0.00166
x2 = 0.001802, x1 = 1.124e-05 | 0.00176
x2 = 0.001802, x1 = 1.341e-05 | 0.00201
x2 = 0.001802, x1 = 1.559e-05 | 0.00222
x2 = 0.001802, x1 = 1.776e-05 | 0.00241
x2 = 0.001802, x1 = 1.993e-05 | 0.00252
x2 = 0.001802, x1 = 2.193e-05 | 0.00268
x2 = 0.001802, x1 = 2.41e-05 | 0.0028
x2 = 0.001802, x1 = 2.61e-05 | 0.0029
x2 = 0.001802, x1 = 3.026e-05 | 0.00309
x2 = 0.001802, x1 = 3.425e-05 | 0.00326
x2 = 0.001802, x1 = 3.824e-05 | 0.00342
x2 = 0.001802, x1 = 4.204e-05 | 0.00356
x2 = 0.001802, x1 = 4.585e-05 | 0.0037
x2 = 0.001802, x1 = 4.947e-05 | 0.00384
x2 = 0.001802, x1 = 5.128e-05 | 0.00392
x2 = 0.001802, x1 = 6.035e-05 | 0.0042
x2 = 0.001802, x1 = 6.886e-05 | 0.00448
x2 = 0.001802, x1 = 7.702e-05 | 0.00472
x2 = 0.001802, x1 = 8.481e-05 | 0.00494
x2 = 0.001802, x1 = 9.242e-05 | 0.00513
x2 = 0.001802, x1 = 9.967e-05 | 0.00531
x2 = 0.001802, x1 = 0.0001066 | 0.00547
x2 = 0.001802, x1 = 0.0001133 | 0.00567
x2 = 0.001802, x1 = 0.0001198 | 0.00577
